Values joined by “and” are separate entries in the source; they are usually repeats but may differ in a detail not shown here. Equal entries are not always repeated. Hit rate of the full screen: of about 48,000 compounds, about 1,200 (2.5%) were called active. Roughly 2% stayed inconclusive and do not appear here.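 The calls were made as follows: active = activation of at least 60% and not above a set upper limit (about 1 call in 100 departs from these limits); inconclusive = activation of 40% to 60%, or above that upper limit; inactive = activation under 40%.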 This is one part of the list.
These compounds were tested against Probable G-protein coupled receptor 32 (Homo sapiens) (UniProt O75388) (assay: qHTS for Agonists of Human Resolvin D1 Receptor DRV1). Settings: CHO-K1 GPR32 beta-arrestin PathHunter luminescence, 90 min; at 76.9 µM; stronger effect = higher value; zero percent set by DMSO-only wells.
Chain of UniProt O75388 (O75388 whole entry, looked up): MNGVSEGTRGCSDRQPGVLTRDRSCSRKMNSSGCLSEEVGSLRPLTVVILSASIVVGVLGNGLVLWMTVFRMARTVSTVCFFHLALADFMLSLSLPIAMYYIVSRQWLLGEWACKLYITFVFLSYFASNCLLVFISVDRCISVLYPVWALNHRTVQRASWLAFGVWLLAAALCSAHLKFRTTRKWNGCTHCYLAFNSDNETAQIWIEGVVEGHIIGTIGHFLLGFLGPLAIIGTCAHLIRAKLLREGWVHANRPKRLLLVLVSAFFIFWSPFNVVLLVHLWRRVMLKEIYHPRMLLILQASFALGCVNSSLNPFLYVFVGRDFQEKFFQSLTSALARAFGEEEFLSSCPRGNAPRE
Procedure, shortened: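 Step 1: seed CHO-K1 GPR32 beta-arrestin cells, 2,500/well, overnight at 37 °C. Step 2: add compounds, 90 min at 37 °C. Step 3: detection reagent, 1 h ambient, then luminescence.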
For `CC1CN(C(=O)Nc2ccc(C(=O)NCCc3ccccc3Cl)cc2)c2ccccc2S1` (configuration not stated), the activation was inactive: -26.7%.
For `CCOC(=O)C1CCN(C(=O)c2cc3ccc4ccc(C)[nH]c4c3n2)CC1`, the activation was inactive: -10.3%.
With `CCC(C)NC(=O)c1[nH]c2cc(OC)ccc2c1Sc1ccc(C)cc1` (configuration not stated) the activation was inactive: -19.1%.
With `CCOc1ccc(NC(=O)CC2C(=O)N(c3cccc(C)c3)C(=O)N2Cc2ccco2)cc1` (configuration not stated) the activation was inactive: -17.1%.
`COc1ccc(-c2cc(C(F)(F)F)n3nc(C(=O)Nc4sc5c(c4C#N)CCC(C)C5)cc3n2)cc1OC` (configuration not stated) was tested, and the activation was inactive: -4.62%.
In the case of `O=C(CSCc1cc(=O)c2ccccc2[nH]1)Nc1cccc(C(F)(F)F)c1`, the activation is reported as inactive: -6.08%.
With `CC(=O)c1ccc(N2CCN(S(=O)(=O)c3ccc4[nH]c5c(c4c3)CCCCC5)CC2)cc1` the activation was inactive: -3.09%.
For `CC(=O)N1c2ccccc2C(=O)C1N1CCN(c2cc(Cl)ccc2C)CC1` (configuration not stated), the activation was inactive: -56.5%.
With `CCOC(=O)c1cccc(NC(=O)c2cnn(-c3ccccc3)c2-n2cccc2)c1` the activation was inactive: -20.6%.
`CCC1CN(C(=O)Nc2ccccc2C(F)(F)F)c2ccccc2S1` (configuration not stated) was tested, and the activation was inactive: -30.2%.
`Cc1ccc(CNC(=O)c2cc(S(=O)(=O)N3CCCCC3)cn2C)cc1` was tested, and the activation was inactive: 0.0735%.
With `Cc1ccc2nc(CN3CCN(C(=O)Nc4cccc(C)c4C)CC3)oc2c1` the activation was inactive: 13.5%.
With `CCC1CN(C(=O)N2CCC(C(=O)N(C)Cc3ccccc3)CC2)c2ccccc2O1` (configuration not stated) the activation was inactive: -8.5%.
In the case of `Cc1nc2c(-c3ccccc3)c(C)[nH]n2c(=O)c1Cc1ccc(C(C)C)cc1`, the activation is reported as inactive: -19%.
`CCS(=O)(=O)c1ncc(N(Cc2cccc(F)c2)Cc2ccco2)c(C(=O)Nc2ccccc2Cl)n1` was tested, and the activation was inactive: 2%.
With `COc1ccc(NC(=O)CN2C(=O)CC(c3ccco3)Sc3ccccc32)cc1OC` (configuration not stated) the activation was inactive: -0.875%.
For `COC(=O)c1scc(-c2ccc(C)cc2)c1S(=O)(=O)Nc1c(C)cc(C)cc1C`, the activation was inactive: -0.685%.
For `CCOc1ccccc1N(C)C(=O)NCc1noc2ccccc12`, the activation was inactive: -13.6%.
`Cc1ccc(-n2nc(C)c3nc(CCC(=O)Nc4ccc(F)cc4)c(=O)n(C)c32)cc1` was tested, and the activation was inactive: -9.48%.
With `CN(CC[C@@H](Oc1ccc(C(F)(F)F)cc1)c1ccccc1)CC(=O)O` the activation was inactive: -1.62%.
For `CCn1cc(C(=O)NC(C)c2ccccc2)c(=O)c2cc(S(=O)(=O)N3CCc4ccccc4C3)ccc21` (configuration not stated), the activation was inactive: -14%.
`CCOc1ccccc1NS(=O)(=O)c1ccc2oc(=O)c3ncn(C)c3c2c1` was tested, and the activation was inactive: 20.5%.
`Cc1ccc(NC(=O)Cn2cc(S(=O)(=O)N3CCCC3)c(S(=O)(=O)N3CCCC3)c2)c(C)c1` was tested, and the activation was inactive: 3.93%.
In the case of `CC(C)Nc1cccnc1N1CCN(C(=O)c2cc3cc(NS(C)(=O)=O)ccc3[nH]2)CC1`, the activation is reported as inactive: 13.1%.
`COc1ccc(C(=O)c2cn(CC(=O)Nc3ccc4c(c3)OCO4)c3ccc(OC)cc3c2=O)cc1` was tested, and the activation was inactive: 4.16%.
With `O=C(NCCc1ccc(Cl)cc1)c1cccn1-c1nnc(N2CCCC2)s1` the activation was inactive: -21.6%.
`CCc1ccccc1NC(=O)c1cc(S(=O)(=O)NC2CCCC2)ccc1F` was tested, and the activation was inactive: -17.3%.
`CCCn1cc(S(=O)(=O)c2ccccc2)c(=O)c2cc(F)c(N3CCCC3)cc21` was tested, and the activation was inactive: -8.28%.
With `COc1ccc(C(=O)N2CCC(C(=O)Nc3ccccc3Cl)CC2)cc1` the activation was inactive: -0.732%.
In the case of `Cc1cccc(NC(=O)CSc2nc3c([nH]c4ccccc43)c(=O)n2-c2ccc(F)cc2)c1C`, the activation is reported as inactive: -14.5%.
`Cc1cccc(OCC(=O)Nc2ccc3c(c2)N(C)C(=O)c2ccccc2S3)c1` was tested, and the activation was inactive: -15.7%.
With `Nc1ccc(S(=O)(=O)Nc2ccccc2)cc1` the activation was inactive: -13.4%.
With `COc1ccc(-n2nc(C(=O)N3CCN(c4cccc(C)c4)C(C)C3)c3c4ccccc4n(C)c3c2=O)cc1` (configuration not stated) the activation was inactive: -4.32%.
For `Cc1ccc(C(=O)N/C(=C\c2cn(S(=O)(=O)N(C)C)c3ccccc23)C(=O)NCCCn2ccnc2)cc1`, the activation was inactive: 25.2%.
With `COc1ccc(NC(=O)c2ccco2)cc1NC(=O)COc1ccccc1Cl` the activation was active: 64.3%.
For `Cc1ccc(-n2c3c(cc(-c4nc(-c5ccc(Cl)cc5)cs4)c2=O)C(=O)CC(C)(C)C3)cc1`, the activation was inactive: 17.7%.
`CCOC(=O)c1c(C)[nH]c(CCC(=O)Nc2cc(C)cc(C)c2)c1C` was tested, and the activation was inactive: -20.2%.
In the case of `O=C(Cn1nc(C(F)(F)F)c2c1CCCC2)Nc1ccc(Cl)cc1`, the activation is reported as inactive: 43.5%.
`COc1cc(OC)cc(C(=O)Nc2ccc(S(=O)(=O)Nc3onc(C)c3C)cc2)c1` was tested, and the activation was inactive: -9.28%.
With `COc1cccc(CNC(=O)CN2C(=O)CCn3nc(-c4cn(C)c5ccccc45)cc32)c1OC` the activation was inactive: 8.27%.
`CCOC(=O)c1cccc(NC(=O)c2cc(-c3ccc(Cl)s3)nc3ccccc23)c1` was tested, and the activation was inactive: -9.36%.
In the case of `CCc1ccc(N2C(=O)CSC23C(=O)N(Cc2cccc(F)c2)c2ccccc23)cc1` (configuration not stated), the activation is reported as inactive: -24.3%.
For `CCN(CC)CCCNC(=O)c1cn(C)c2ccc(S(=O)(=O)N3CCOCC3)cc2c1=O`, the activation was inactive: -0.411%.
`COc1ccc(NC(=O)Cn2ncc3c([nH]c4ccccc43)c2=O)cc1Cl` was tested, and the activation was inactive: -5.73%.
With `Cc1ccc(NC(=O)CSc2nc(C)cc(C)c2C(=O)Nc2cccc(C)c2)cc1` the activation was inactive: -14.8%.
With `O=C(NCCc1ccccc1)c1ccc(CSc2nc3ccncc3n2Cc2ccccc2)cc1` the activation was inactive: -22.5%.
In the case of `COc1ccc(Br)cc1CNC(=O)CN1C(=O)CSc2ccc(S(=O)(=O)N3CCOCC3)cc21`, the activation is reported as inactive: -13.6%.
With `Cc1ccc(NC(=O)c2cc3c(=O)n(Cc4cccnc4)ccc3nc2C)cc1F` the activation was inactive: -4.01%.
`CCC(C(=O)NCc1ccccc1)n1ncn2c(cc3occc32)c1=O` (configuration not stated) was tested, and the activation was inactive: -20.4%.
For `Cc1cccc(C(=O)Nc2cccc(C(=O)OCc3cc(=O)n4ccsc4n3)c2)c1`, the activation was inactive: -12.7%.
For `CCOC(=O)c1ccc2ncc(C(=O)OCC)c(Nc3ccc(C)c(Br)c3)c2c1`, the activation was inactive: -5.33%.
For `COc1ccc(NC(=O)CNS(=O)(=O)c2cccs2)c(OC)c1`, the activation was inactive: -2.13%.
`COc1ccc(OC(C)C(=O)NCc2nc(-c3ccc(Cl)cc3)no2)cc1` (configuration not stated) was tested, and the activation was inactive: 5.79%.
In the case of `COc1ccccc1NC(=O)C1=C(C)Nc2ncnn2C1c1ccccn1` (configuration not stated), the activation is reported as inactive: -9.74%.
`Cn1c(=O)c2[nH]c(-c3ccccc3)nc2n(C)c1=O` was tested, and the activation was inactive: 0.824%.
For `O=c1c2oc3ccccc3c2n(Cc2cccc(C(F)(F)F)c2)c(=O)n1Cc1ccc2c(c1)OCO2`, the activation was inactive: -18.2%.
In the case of `COc1ccc(OC)c(CNC(=O)c2cccc(NC(=O)N3CCSc4ncccc43)c2)c1`, the activation is reported as inactive: -5.85%.
`NS(=O)(=O)c1cc2c(cc1Cl)NC=NS2(=O)=O` was tested, and the activation was inactive: -2.18% and inactive: -0.118%.
In the case of `CC(C)Sc1ncc(Cl)c(C(=O)Nc2ccc(S(=O)(=O)N3CCCCC3C)cc2)n1` (configuration not stated), the activation is reported as inactive: -17.1%.
In the case of `CCOc1ccc(NC(=O)CSc2cc(C)c3ccccc3n2)cc1`, the activation is reported as inactive: -7.91%.
For `O=C(NCc1cccs1)c1nn(-c2ccccc2)nc1CO`, the activation was inactive: -13.3%.
`CCOc1ccc(CNC(=O)CN2C(=O)CCn3nc(-c4cn(C)c5ccccc45)cc32)cc1OC` was tested, and the activation was inactive: 17.6%.
In the case of `CCCn1c2ccccc2c2cnn(CC(=O)Nc3cccc(C(=O)OCC)c3)c(=O)c21`, the activation is reported as inactive: -15.3%.
For `CC(C)OC(=O)c1cc2c(OCC(O)CNC(C)(C)C)cccc2[nH]1` (configuration not stated), the activation was inactive: 14.3%.
`Cc1ccc(S(=O)(=O)c2nc(-c3ccco3)oc2SC(C)C)cc1` was tested, and the activation was inactive: -39.2%.
`Cc1ccc(NC(=O)Cn2c(=O)n(-c3ccc(C)cc3)c(=O)c3ccc(C(=O)NCc4ccccc4Cl)cc32)cc1` was tested, and the activation was inactive: -2.77%.
`COc1ccc(CCNC(=O)Cc2c(C)c3c(cc(C)c4c(C)c(C)oc43)oc2=O)cc1OC` was tested, and the activation was inactive: -7.54%.
In the case of `COc1ccc(NC(=O)c2cc(-c3ccc4c(c3)OCO4)on2)c(OC)c1`, the activation is reported as inactive: -4.18%.
`CCOC(=O)c1cccc(NC(=O)CCS(=O)(=O)c2ccc(Br)s2)c1` was tested, and the activation was inactive: -7.97%.
For `Cc1ccc(NC(=O)CN2Cc3ccccc3C2=O)c(C)c1`, the activation was inactive: -12.2%.
In the case of `CN1CC(=O)N/C1=N/C(=O)Nc1cccc(Cl)c1`, the activation is reported as inactive: -5.37% and inactive: -58.5%.
With `CC(=O)Nc1nonc1-c1nnc(SCc2ccc(F)cc2Cl)n1C` the activation was inactive: -1.13%.
With `Cc1cc(C)cc(NC(=O)c2sc3nc(-c4ccccc4)cn3c2C)c1` the activation was inactive: -24.3%.
With `CC1(C(=O)NC2CCCCC2)Cc2ccccc2C(=O)N1Cc1ccc(Cl)cc1` (configuration not stated) the activation was inactive: -24.3%.
With `COc1cccc(C2C(C(=O)Nc3ccc(Cl)cc3)=C(C)Nc3c(C(=O)Nc4ccccc4)cnn32)c1OC` (configuration not stated) the activation was inactive: -11.6%.
In the case of `Cn1c(=O)c2c(nc(SCC(=O)Nc3ccc(F)cc3F)n2Cc2ccccc2)n(C)c1=O`, the activation is reported as inactive: 10.5%.
With `Cc1c(C)n(Cc2ccc(F)cc2)c2ccc(C(=O)N3CCN(c4ccc(Cl)cc4)CC3)cc12` the activation was inactive: -24.7%.
For `COC(=O)c1ccccc1C(=O)c1ccc(OCCN2CCCCC2)cc1`, the activation was inactive: -6.16%.
`CCOC(=O)C1CCN(c2cc3c(cc2NC(=O)c2ccc(OC)c(OC)c2)n(C)c(=O)n3C)CC1` was tested, and the activation was inactive: -14%.
With `CC1CCCCN1S(=O)(=O)c1ccc(F)c(C(=O)Nc2ccccc2C(F)(F)F)c1` (configuration not stated) the activation was inactive: -10.2%.
With `Cc1cn2c(=O)cc(COc3cc(C)c(Cl)c(C)c3)nc2s1` the activation was inactive: -3.23%.
`CCC(C)NC(=O)Cn1c(=O)n(CCCC(=O)NCc2ccc(C)cc2)c(=O)c2ccccc21` (configuration not stated) was tested, and the activation was inactive: -0.937%.

From PubChem BioAssay AID1346428 (National Center for Advancing Translational Sciences (NCATS), 2018)
Also: 0% is about no effect.
